# Laboratory results reported in PubChem BioAssay (Tox21).
# “And” between values parts separate entries of the source, which are not always exact repeats. Equal values may be shown once. The shares of active, inactive and inconclusive entries below differ from those in the screen. Where the call is inconclusive, the potency comes from a doubtful curve fit. Some structures have more than one record in an assay (separate samples or runs), and their calls can disagree. The source made the active and inactive calls. Calls come from the whole dose curve; as a rule, active = well fitted inhibition curve with a large enough effect in the signal ratio in the repeat runs, with a control signal flat; inconclusive = weak or mixed curves, or effect the other way; inactive = flat fitted curve, though single readings scatter; the % refers to the signal ratio.
# Molecular target: D(2) dopamine receptor (Homo sapiens) (UniProt P14416)
# Experiment: Dopamine D2 receptor (DRD2) small molecule antagonists, cell-based qHTS assay (AID 1963595)
# Conditions: HEK293-DRD2 cAMP HTRF antagonist mode; activity change, negative = inhibition: at 92.4 µM (top of the series) unless noted
# Text: National Center for Advancing Translational Sciences [NCATS]
# Division of Preclinical Innovation [DPI]
# U.S. Environmental Protection Agency [EPA]
# National Institutes of Environmental Health Sciences [NIEHS]
# National Toxicology Program [NTP]
# U.S. Food and Drug Administration [FDA]
# DRD2 is the D2 subtype of the dopamine receptor, which is coupled to Gi subtype of G protein-coupled receptor. This G protein-coupled receptor inhibits adenylyl cyclase activity. The DRD2-HEK293 cell line stably expressing D2 dopamine receptor can be used for screening agonists and antagonists of interactions between D2 and its ligands. The Hek293-DRD2 cAMP assay is based on HTRF technology. It measures changes of cAMP accumulation in response to Gi coupled GPCR activation or inhibition.
# Tox21 Assay Protocol Summary:
# DRD2-Hek293 cells were dispensed at 600 cells/3uL/well in 1536-well white plates using a Multidrop Dispenser. After the assay plates were incubated at a 37 C/5% CO2 incubator for 24 h, 1 uL of Ro20-1724 at final concentration of 0.1 mM was transferred to the assay plate by a Flying Reagent Dispenser. Following Ro20-1724 addition, 23 nL of compound dissolved in DMSO, positive controls or DMSO only was added to the assay plates via Wako pintool station. The assay plates were incubated at room temperature for 10 min. Next, 1 uL of mixture of NKH477 (final concentration at 200 nM) and quinpirole (final concentration at 12 nM) was added into the plates. After the assay plates were incubated at room temperature for an additional 30 min, 2.5 ul/well of cAMP-d2 and 2.5 ul/well of anti-cAMP-cryptate were added respectively into the assay plates using a Flying Reagent Dispenser. The plates were incubated at room temperature for 1 h. The fluorescence intensity in the plates was measured at 340 nm excitation and 665 & 620 nm emission by an Envision plate reader.
# % is set by controls: 0 for no effect and ±100 for the full control effect; potency is the fitted concentration of half-maximal effect; tags give direction and shape of the fitted curve.
# Chain of UniProt P14416 (P14416 whole entry, looked up): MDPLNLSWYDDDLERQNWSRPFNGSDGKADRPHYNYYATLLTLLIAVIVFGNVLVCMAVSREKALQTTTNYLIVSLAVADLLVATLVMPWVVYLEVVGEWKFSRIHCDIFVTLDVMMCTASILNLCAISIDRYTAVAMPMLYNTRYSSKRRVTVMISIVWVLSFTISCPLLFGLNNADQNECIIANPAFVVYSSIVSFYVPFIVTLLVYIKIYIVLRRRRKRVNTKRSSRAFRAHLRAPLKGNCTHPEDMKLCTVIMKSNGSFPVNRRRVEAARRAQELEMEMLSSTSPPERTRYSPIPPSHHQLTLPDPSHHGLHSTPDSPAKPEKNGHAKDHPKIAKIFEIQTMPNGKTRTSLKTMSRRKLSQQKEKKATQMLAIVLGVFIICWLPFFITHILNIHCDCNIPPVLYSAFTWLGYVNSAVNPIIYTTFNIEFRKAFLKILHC
Compound,Potency,"activity change, negative = inhibition"
Nc1ccc([N+](=O)[O-])cc1Cl,inactive,
Oc1ccc(C(c2ccc(O)cc2)(C(F)(F)F)C(F)(F)F)cc1,,inconclusive: -31%
c1cc2ccc3cccc4ccc(c1)c2c34,,inconclusive: -0.433%
CC(C)(C)c1cc(O)ccc1O,,inconclusive: 3.74%
CC(C)c1cccc(C(C)C)c1O,,inconclusive: -8.44% [at 42.5 µM]
O=C(NC(=O)c1c(F)cccc1F)Nc1ccc(Cl)cc1,,inconclusive: 2.47%
CS(=O)(=O)Cl,inactive,
COC1CC(=C(c2cccs2)c2cccs2)C[N+](C)(C)C1 (stereo not given),,inconclusive: 2.67% [at 42.5 µM]
c1ccc2c(c1)-c1cccc3cccc-2c13,"inconclusive: 61.1 µM [inhibitor, single point]",
CCc1nn(C)c(C(=O)NCc2ccc(C(C)(C)C)cc2)c1Cl,"inconclusive: 68.6 µM [inhibitor, single point]",
Cc1cc(Cl)ccc1N,inactive,
S=C=Nc1ccccc1,inactive,
Clc1ccc(CCC(Cn2ccnc2)Sc2c(Cl)cccc2Cl)cc1 (stereo not given),"inconclusive: 33.5 µM [inhibitor, single point]",
CC(C)CC(C)(c1ccc(O)cc1)c1ccc(O)cc1,"inconclusive: 68.7 µM [inhibitor, single point]",inconclusive: -29.5%
NCc1cccnc1,inactive,
CCOC(=O)CC(SP(=S)(OC)OC)C(=O)OCC (stereo not given),,inconclusive: -5.9%
CCCN(CCOc1c(Cl)cc(Cl)cc1Cl)C(=O)n1ccnc1,,inconclusive: -28.7%
CC(C)=CC1C(C(=O)OCc2cccc(Oc3ccccc3)c2)C1(C)C (stereo not given),inactive,
CCCCCC[n+]1ccccc1,,inconclusive: 30.1%

Compound,Potency,"activity change, negative = inhibition"
CC(C)(c1ccccc1)c1ccc(O)c(C(C)(C)c2ccccc2)c1,active: 54 µM and inconclusive: 61.1 µM [inhibitor],
CN1C[C@H](CNC(=O)OCc2ccccc2)C[C@@H]2c3cccc4c3c(cn4C)C[C@H]21,active: 10.6 µM,
COc1cc(OC)c(OC)cc1C=O,,inconclusive: -2.99%
O=C1C2CC=CCC2C(=O)N1SC(Cl)(Cl)Cl (stereo not given),active: 23.9 µM,
C[C@@H]1CC2=CC(=O)CC[C@@H]2[C@H]2CC[C@@]3(C)[C@@H](CC[C@]3(C)O)[C@@H]21,inactive,
O=C1NCN(c2ccccc2)C12CCN(CCCOc1ccc(F)cc1)CC2,active: 0.106 µM,
C[C@@H]1CC[C@@]2(OC1)O[C@H]1[C@@H](O)[C@H]3[C@@H]4CC[C@H]5C[C@@H](O[C@@H]6O[C@H](CO)[C@H](O[C@@H]7O[C@H](CO)[C@@H](O)[C@H](O[C@@H]8OC[C@@H](O)[C@H](O)[C@H]8O)[C@H]7O[C@@H]7O[C@H](CO)[C@@H](O)[C@H](O[C@@H]8O[C@H](CO)[C@@H](O)[C@H](O)[C@H]8O)[C@H]7O)[C@H](O)[C@H]6O)[C@H](O)C[C@]5(C)[C@H]4CC[C@]3(C)[C@H]1[C@@H]2C,active: 2.3 µM,
C[C@]12CC[C@H]3[C@@H](CCC4=CC(=O)CC[C@@H]43)[C@@H]1CC[C@@H]2OC(=O)CCc1ccco1,"inconclusive: 33.5 µM [inhibitor, single point]",
CN1C[C@@H](NS(=O)(=O)N(C)C)C[C@@H]2c3cccc4c3c(cn4C)C[C@H]21,active: 1.19 µM,
CC(C)NCC(O)c1ccc(N)c(C#N)c1 (stereo not given),active: 0.0047 µM,
Cc1cc(-c2ccc(N)c(C)c2)ccc1N,,inconclusive: -10.7%
N#Cc1c(Cl)c(Cl)c(Cl)c(C#N)c1Cl,active: 15.1 µM and active: 4.86 µM,
COc1ccc(N)cc1N,inactive,
CC(CCc1ccccc1)NC(C)C(O)c1ccc(O)cc1 (stereo not given),active: 16.8 µM,
ClC1C(Cl)C(Cl)C(Cl)C(Cl)C1Cl (stereo not given),"inconclusive: 77 µM [inhibitor, single point]",
N#CC(C#N)=Cc1ccc(O)c(O)c1,inconclusive: 33.5 µM [inhibitor],
ClC(Cl)(Cl)c1ccccc1,,inconclusive: 2.43%
CCCCCCCCCCCCCCCC[N+](C)(C)C,"inconclusive: 61.1 µM [inhibitor, partial curve]",inconclusive: -24.7% [at 42.5 µM]
Nc1ccccc1C(=O)OCCc1ccccc1,,inconclusive: -30.9%
